Data: PubChem BioAssay AID504832 (National Center for Advancing Translational Sciences (NCATS), 2011)
Among all 310,000 compounds or so, about 18,000 (5.8%) were called active. The inconclusive results got no clear call from the source; some entries with a clear call stand among them for comparison. The call rests on the fitted dose curve; in most records, active means well fitted inhibition curve with a large enough effect; inconclusive means small, poorly fitted or top-dose-only effect, or another doubt; inactive means no such curve, though single readings can be large or run the other way. Potencies of inconclusive entries are left out as doubtful fits.

experiment: Primary qHTS for delayed death inhibitors of the malarial parasite plastid, 48 hour incubation; conditions: P. falciparum luciferase growth in erythrocytes; series mostly up to 28.7 µM
Summary of the method: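 Read-out is firefly luciferase luminescence from an integrated reporter in P. falciparum, so falling signal marks reduced parasite growth. Infected erythrocytes were at 2% hematocrit and 0.1% parasitemia (final) in Albumax-supplemented RPMI 1640.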
Potency means the concentration at half of the fitted maximal effect; tags describe the fitted curve by direction and shape.

SMILES	Potency
COc1ccccc1N1CCN(c2ccnc3cc(Cl)ccc23)CC1	inconclusive [inhibitor, full curve]
Cc1ccc(NC(=S)N2CCN(S(=O)(=O)c3ccc(C)cc3)CC2)cc1	inconclusive [inhibitor, single point]
O=C(C1=C[C@@H](c2ccc(Br)cc2)C[C@@H](OCc2ccc(CO)cc2)O1)N1CCN(Cc2ccccc2)CC1	inconclusive [inhibitor, full curve, poor fit]
O=C(Nc1ccc(S(=O)(=O)N2CCCCC2)cc1)c1ccco1	inconclusive [inhibitor, single point]
NNC(=O)c1oc2nc(-c3cccs3)cc(-c3ccco3)c2c1N	inconclusive [inhibitor, single point]
CCOC(=O)c1ccc[n+](CC(=O)c2ccc(NC(=O)c3ccccc3)cc2)c1	inactive
Cc1csc(NC(=O)CSc2nnc3ncccn23)n1	inactive
COc1ccc([C@H]2CC(=O)C=C(/C=C/c3ccccc3)C2)cc1OC	inconclusive [inhibitor, single point]
C=CCn1c(CCNC(=O)c2ccccc2F)nnc1SCC(=O)Nc1ccc(OC)cc1	inconclusive [inhibitor, partial curve, poor fit]
Cc1cnc(NC(=O)CSc2nnc(-c3cccs3)n2C)s1	inconclusive [inhibitor, single point]
O=C(N/N=C/c1ccccn1)c1ccc(Br)cc1	inconclusive [inhibitor, single point]
CCOc1cc(/C=C2/NC(=O)NC2=O)cc(Br)c1OCc1ccc(C(=O)O)cc1	inactive
COC(=O)C1=C(c2ccc(F)cc2F)C[C@@H]2CC[C@H]1N2C(=O)NCc1ccc(F)cc1	inconclusive [inhibitor, single point]
Cc1cccc(NC(=O)c2ccc(Cl)c(S(=O)(=O)N3CCCC3)c2)n1	inconclusive [inhibitor, single point]
CN(C)c1nnnn1-c1ccccc1Oc1ncc(C(F)(F)F)cc1Cl	inconclusive [inhibitor, partial curve]
Cc1ccc(Cl)cc1N1CCN(C(c2ccc(C#N)cc2)c2nnnn2C2CCCC2)CC1 (stereo unspecified)	active: 2.33 µM
COC(=O)C(C)Oc1cc(C)cc2oc(=O)c3c(c12)CCCC3 (stereo unspecified)	inconclusive [inhibitor, single point]
CC1(C)Cc2cccc(C(=O)NCc3ccco3)c2O1	inconclusive [inhibitor, single point]
CCCn1nc(NC(=O)c2cccs2)c2cc3cccc(C)c3nc21	inconclusive [inhibitor, single point]
N#Cc1c(NC(=O)CSc2ccccn2)oc(-c2ccccc2)c1-c1ccccc1	inconclusive [inhibitor, single point]
Nc1ccc(-c2nc3c(ccc4ccccc43)[nH]2)cc1	inconclusive [inhibitor, single point]
COC(=O)CC1COc2ccccc2N1C(=O)c1ccc(C(C)(C)C)cc1 (stereo unspecified)	inconclusive [inhibitor, single point]

SMILES	Potency
O=C(CSc1nccc(=O)[nH]1)Nc1ccc(N2CCOCC2)cc1	inactive
CC(Sc1nc2ncc(Cl)cc2[nH]1)C(=O)c1c(N)n(C)c(=O)n(C)c1=O (stereo unspecified)	inconclusive [inhibitor, partial curve]
COC(=O)c1ccc(CSc2nc3ccccc3c(=O)n2-c2ccccc2)o1	inactive
O=C1/C(=C\c2ccc(Br)o2)SC(=Nc2ccccc2)N1c1ccccc1	inconclusive [inhibitor, partial curve]
Cc1noc(C)c1C(=O)Nc1ccccc1-c1ccccc1	inactive
CC(C)C(NC(=O)c1ccccc1)C(=O)OCC(=O)N1CCCC1 (stereo unspecified)	inactive
O=c1[nH]c2cc3c(cc2cc1C(c1nnnn1CC1CCCO1)N1CCCCCC1)OCCO3 (stereo unspecified)	inactive
O=C(c1cccs1)N(CC1CCCO1)c1nc(-c2ccccc2)cs1 (stereo unspecified)	inconclusive [inhibitor, single point]
COc1cccc(N2CCN(C(=O)c3cccc(N4C(=O)NC5CC4(C)Oc4c(OC)cccc45)c3)CC2)c1 (stereo unspecified)	inconclusive [inhibitor, partial curve]
FC(F)(F)c1cccc(CNC2c3ccccc3-c3ccccc32)c1	inconclusive [inhibitor, single point]
COc1cc(OC)c(-c2nn3c(-c4cccnc4)nnc3s2)cc1OC	inconclusive [inhibitor, partial curve, poor fit]
COc1ccc(/C=N/NC(=O)c2ccccc2[N+](=O)[O-])cc1CN1CCc2cc(OC)c(OC)cc2C1C (stereo unspecified)	inconclusive [inhibitor, partial curve, poor fit]
Cn1c(C=O)c(-c2ccc3cc[nH]c3c2)c2ccccc21	inconclusive [inhibitor, partial curve, poor fit]
CCOC(=O)N1CCC(NC(=O)CCc2c(C)nc3c(c(C)nn3C(C)(C)C)c2C)CC1	active: 11.7 µM
CCCCc1nc2cc(C(=O)NCc3cc(C)n(C)n3)ccc2o1	inactive
COc1ccccc1N1CCN(/N=C\c2ccccc2)CC1	inactive
Cc1ccc(N(C(=O)CCC(=O)Nc2cc(C)on2)C(C(=O)NC2CCCC2)c2ccccc2)cc1 (stereo unspecified)	active: 11.7 µM
CCOc1cc(N2CCOCC2)c(OCC)cc1NC(=O)CN1C(=O)NC2(CCCCCCC2)C1=O	inconclusive [inhibitor, partial curve, poor fit]
O=C(CCC(=O)c1ccccc1)NCc1ccccc1	inconclusive [inhibitor, partial curve, poor fit]
CC(C)(C)OC(=O)NCCCCCc1nnc(SCc2ccccc2)o1	inconclusive [inhibitor, partial curve, poor fit]
O=C/C(=C\Nc1ccccn1)c1nc2ccccc2o1	inconclusive [inhibitor, single point]
COC(CNC(=O)CN1CCN(Cc2ccccc2F)C1=O)OC	inconclusive [inhibitor, single point]

SMILES	Potency
COCCn1cc(C(=O)N2CCCC(C)C2)c2c3ccccc3n(C)c2c1=O (stereo unspecified)	inconclusive [inhibitor, single point]
Cc1ccc(S(=O)(=O)N(C)C)cc1NC(=O)COC(=O)C1(c2ccccc2)CC1	inconclusive [inhibitor, partial curve]
COc1ccc(OC)c(N(CC(=O)NC2CC2)S(=O)(=O)c2ccc(C)cc2)c1	inconclusive [inhibitor, partial curve, poor fit]
Cc1nonc1C1CCCN1Cc1cn[nH]c1-c1ccc(-c2ccccc2)cc1 (stereo unspecified)	inactive
CCc1ccc(C2CC(c3ccccc3C)n3nc(N)nc3N2)cc1 (stereo unspecified)	inactive
COc1cc(NC(=O)c2cccs2)c(OC)cc1NC(=O)CCC(=O)Nc1ccc2ncccc2c1	inconclusive [inhibitor, partial curve, poor fit]
CSCCC(NS(=O)(=O)c1ccc(C)cc1)C(=O)N1CCN(C(c2ccccc2)c2ccccc2)CC1 (stereo unspecified)	active: 3.7 µM
CC(/C=N/NC(=O)c1cc(-c2ccc3ccccc3c2)n[nH]1)=C\c1ccco1	inconclusive [inhibitor, partial curve, poor fit]
Cc1ccccc1N1C(=O)[C@@H]2Cc3ccccc3CN2C1=O	inconclusive [inhibitor, single point]
N=c1c(C(=O)NCc2ccco2)cc2c(=O)n3ccccc3nc2n1CCc1ccccc1	active: 0.928 µM
COc1ccc(C(=O)C2CCCN(Cc3nc4ccccc4nc3C)C2)cc1OC (stereo unspecified)	inconclusive [inhibitor, single point]
Cc1ccc(/C(N)=N/OC(=O)c2cc(-c3ccccc3)nc3ccccc23)cc1	inactive
COc1ccc(S(=O)(=O)N2CCOCC2)cc1NC(=O)CSc1ncnc2ccccc12	inconclusive [inhibitor, partial curve, poor fit]
Cc1n[nH]c(=O)c2c(NC(=O)CSc3nnnn3-c3ccccc3)oc(C)c12	inactive
O=C(Nc1ccccc1)C1C2CCC3C(CCC21)C3(Cl)Cl (stereo unspecified)	inconclusive [inhibitor, full curve, poor fit]
CCOc1ccccc1NC(=O)C1CCCN(c2c(CC)c(C)nc3ncnn23)C1 (stereo unspecified)	active: 10.4 µM
COc1ccc(NC(=O)Cc2c(Sc3ccccc3)c3ccccc3n2C)cc1	inconclusive [inhibitor, partial curve, poor fit]
Cc1ccc(Cl)cc1NC(=O)c1ccccc1OCC(=O)N1CCOCC1	inconclusive [inhibitor, partial curve]
Cc1cccc(C)c1-n1c(SCC(=O)Nc2ccc(C(=O)O)cc2)nnc1-c1cccc(S(=O)(=O)N(C)C)c1	inconclusive [inhibitor, single point]
CC[C@H](C)Cc1cn([C@@H](CCCN=C(N)N)C(=O)NCCCCCCCCCCC(=O)N2CCNCC2)nn1	active: 4.65 µM
N#Cc1ccc(-c2ccccc2)nc1Sc1ccc(F)cc1	inconclusive [inhibitor, single point]
O=c1cc(-c2ccccc2)n(S(=O)(=O)c2ccccc2)o1	inactive
